Measured values: a compilation of properties of binary mixtures (doi:10.1021/ie302343v)
The densities may have been worked out from excess volumes.

Assay: xn = mol fraction of the nth substance listed
Conditions: 101 kPa

CCCOC(C)=O + CCCCCC(=O)[O-].C[NH2+]CCO
x1 = 1
Conditions	mass density [kg/m3]
293.15 K	888.2
298.15 K	882.6
318.15 K	860
323.15 K	854.3
328.15 K	848.5

CCOC(C)=O + CCCCCC(=O)[O-].C[NH2+]CCO
x1 = 1
Conditions	mass density [kg/m3]
288.22 K	907
293.14 K	901
298.15 K	894.9
303.15 K	888.8
313.16 K	876.3
318.16 K	870.1

COC(C)=O + CCCCCC(=O)[O-].C[NH2+]CCO
x1 = 1
Conditions	mass density [kg/m3]
288.15 K	939.9
293.14 K	933.4
298.14 K	926.8
303.14 K	920.2
308.14 K	913.5
318.14 K	899.9
323.15 K	893
328.15 K	886

CCCCCC(=O)[O-].C[NH2+]CCO + CCCOC(C)=O
Conditions	mass density [kg/m3]
288.15 K, x2 = 0	1001.1
288.15 K, x2 = 0.0454	998.9
288.15 K, x2 = 0.1089	994.9
288.15 K, x2 = 0.6005	957.5
288.15 K, x2 = 0.8036	930.8
288.16 K, x2 = 0.304	982
288.16 K, x2 = 0.4022	976.4
288.16 K, x2 = 0.4999	968.2
288.16 K, x2 = 0.8978	913.7
293.14 K, x2 = 0.0454	995.7
293.14 K, x2 = 0.2022	984.9
293.14 K, x2 = 0.8978	908.5
293.15 K, x2 = 0	997.6
293.15 K, x2 = 0.304	978.1
293.15 K, x2 = 0.4999	964.1
293.15 K, x2 = 0.6005	953.1
293.15 K, x2 = 0.7024	940.2
293.15 K, x2 = 0.9489	898.5
298.14 K, x2 = 0.0454	991.5
298.14 K, x2 = 0.4022	968.5
298.15 K, x2 = 0.1089	987.4
298.15 K, x2 = 0.2022	980.8
298.15 K, x2 = 0.6005	948.8
298.15 K, x2 = 0.8036	921.1
298.15 K, x2 = 0.8978	903.2
298.15 K, x2 = 0.9489	893
303.14 K, x2 = 0.1089	983.6
303.14 K, x2 = 0.2022	976.8
303.14 K, x2 = 0.304	969.9
303.14 K, x2 = 0.4022	964.5
303.14 K, x2 = 0.4999	955.8
303.14 K, x2 = 0.7024	930.9
303.15 K, x2 = 0	990.7
303.15 K, x2 = 0.6005	944.4
303.15 K, x2 = 0.8036	916.1
303.15 K, x2 = 0.8978	897.9
303.15 K, x2 = 0.9489	887.5
308.14 K, x2 = 0.0454	984
308.14 K, x2 = 0.1089	979.9
308.14 K, x2 = 0.304	965.8
308.14 K, x2 = 0.4022	960.5
308.14 K, x2 = 0.7024	926.2
308.14 K, x2 = 0.8036	911.2
308.15 K, x2 = 0.4999	951.6
308.15 K, x2 = 0.6005	940
308.15 K, x2 = 0.8978	892.6
308.15 K, x2 = 0.9489	882
313.14 K, x2 = 0	983.6
313.14 K, x2 = 0.0454	980.2
313.14 K, x2 = 0.1089	974.3
313.14 K, x2 = 0.2022	968.7
313.14 K, x2 = 0.304	961.4
313.14 K, x2 = 0.4022	956.5
313.14 K, x2 = 0.4999	947.4
313.14 K, x2 = 0.8978	887.2
313.14 K, x2 = 0.9489	876.5
313.15 K, x2 = 0.6005	935.5
318.14 K, x2 = 0.4999	943.1
318.14 K, x2 = 0.7024	916.8
318.14 K, x2 = 0.9489	870.9
318.15 K, x2 = 0	980.2
318.15 K, x2 = 0.0454	975.9
318.15 K, x2 = 0.8978	881.8
323.14 K, x2 = 0.304	952.7
323.14 K, x2 = 0.4999	938.8
323.14 K, x2 = 0.7024	912
323.14 K, x2 = 0.8036	896
323.14 K, x2 = 0.8978	876.4
323.15 K, x2 = 0	976.7
323.15 K, x2 = 0.1089	967.1
323.15 K, x2 = 0.6005	926.5
328.14 K, x2 = 0.4999	934.6
328.14 K, x2 = 0.7024	907.2
328.14 K, x2 = 0.8978	871.2
328.14 K, x2 = 0.9489	859.7
328.15 K, x2 = 0	973.1
328.15 K, x2 = 0.0454	967.1
328.15 K, x2 = 0.1089	963.5
328.15 K, x2 = 0.2022	956.7
328.15 K, x2 = 0.6005	922
328.15 K, x2 = 0.8036	890.9
